# Laboratory results published in PMC4336329 (PLoS ONE, 2015).
# The campaign covered roughly 310,000 compounds. About 14,000 (4.5%) showed an effect of 50% or more. The effect is printed as a negative number. The list shows a part of the results.
# Molecular target: human ether-à-go-go-related gene (hERG) potassium channel (human, UniProt Q12809)
# Experiment: primary screen, population patch clamp on CHO cells stably expressing hERG
# 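Note: peak tail current of the secondary pulse compared with the same well before compound.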
# Sequence of human ether-à-go-go-related gene (hERG) potassium channel (Q12809 whole entry, looked up): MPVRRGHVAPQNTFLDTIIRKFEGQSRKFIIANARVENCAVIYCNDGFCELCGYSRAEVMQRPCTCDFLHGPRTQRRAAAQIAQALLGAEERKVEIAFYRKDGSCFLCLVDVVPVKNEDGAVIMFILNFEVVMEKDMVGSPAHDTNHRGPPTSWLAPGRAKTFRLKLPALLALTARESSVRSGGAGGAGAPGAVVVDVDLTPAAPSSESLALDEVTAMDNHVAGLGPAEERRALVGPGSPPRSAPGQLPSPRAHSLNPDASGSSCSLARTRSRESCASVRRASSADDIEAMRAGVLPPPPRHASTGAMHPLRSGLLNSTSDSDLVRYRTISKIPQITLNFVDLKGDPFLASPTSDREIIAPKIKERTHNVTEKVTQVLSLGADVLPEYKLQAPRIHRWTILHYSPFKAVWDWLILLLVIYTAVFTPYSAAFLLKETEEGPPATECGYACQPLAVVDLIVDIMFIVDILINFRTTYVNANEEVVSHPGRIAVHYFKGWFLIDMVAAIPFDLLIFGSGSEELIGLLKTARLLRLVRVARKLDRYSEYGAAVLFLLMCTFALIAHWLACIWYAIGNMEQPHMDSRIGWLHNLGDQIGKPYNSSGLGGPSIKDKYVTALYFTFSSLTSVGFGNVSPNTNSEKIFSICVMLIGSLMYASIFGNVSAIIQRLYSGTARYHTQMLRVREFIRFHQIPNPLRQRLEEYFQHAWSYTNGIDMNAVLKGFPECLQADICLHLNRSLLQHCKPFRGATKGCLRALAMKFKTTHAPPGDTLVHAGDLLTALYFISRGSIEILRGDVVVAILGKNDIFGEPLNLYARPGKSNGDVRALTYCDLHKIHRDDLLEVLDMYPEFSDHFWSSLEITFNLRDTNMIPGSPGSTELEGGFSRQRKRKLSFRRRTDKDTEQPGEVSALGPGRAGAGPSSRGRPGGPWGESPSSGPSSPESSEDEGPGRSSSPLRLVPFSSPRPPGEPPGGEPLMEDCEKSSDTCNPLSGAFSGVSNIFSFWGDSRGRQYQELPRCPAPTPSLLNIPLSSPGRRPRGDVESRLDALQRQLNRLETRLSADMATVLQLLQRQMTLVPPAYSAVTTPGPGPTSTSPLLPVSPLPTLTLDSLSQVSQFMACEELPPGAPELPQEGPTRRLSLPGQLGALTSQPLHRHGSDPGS
row,SMILES,"hERG current change (%, negative = inhibition) at 10uM [%]"
1,O=C(Nc1cccc([N+](=O)[O-])c1)Nc1ccc(Cl)cn1,10.8
2,CCNC(=S)Nc1cc(OC)c(NC(=O)c2ccco2)cc1OC,1.21
3,CCOC(=O)c1c(C)oc2ccc(OS(C)(=O)=O)cc12,1.04
4,Cc1ccc(CONC(=O)c2cccc([N+](=O)[O-])c2)cc1,-23.5
5,Cc1ccc(N2CC(C(=O)Nc3nnc(SCC(=O)NCC4CCCO4)s3)CC2=O)cc1C (stereo not drawn),-1.56
6,O=c1c2c(nc3c(-c4ccc(Cl)cc4)c[nH]n13)CCCC2,-19.9
7,CC1=C(C(N)=O)C(c2ccc(Br)cc2)n2nc(CCCO)nc2N1 (stereo not drawn),21.9
8,Cc1ccc(Cn2c(=O)c3ccccc3n3c(CCC(=O)NCCN4CCOCC4)nnc23)cc1,-19.5
9,Cc1ccc(CN2CC(C(=O)N3CCN(S(=O)(=O)c4ccc(C(C)C)cc4)CC3)CC2=O)cc1 (stereo not drawn),-30
10,O=C(/C=C/c1ccc(Cl)cc1)Nc1ccc(Br)cn1,10.5
11,CC(C)(C)c1ccc(NC(=O)NC2CCCc3ccccc32)cc1 (stereo not drawn),12.7
12,O=C(NCc1ccccc1)Nc1cc(Cl)ccc1Cl,17.4
13,C#CC[N+]1(C)[C@@H]2CC[C@H]1CC(OC(=O)C(CO)c1ccccc1)C2.[Br-] (stereo partly drawn),8.31
14,CSc1ccc(/C=N/NC(=O)c2cc(O)cc(O)c2)cc1,8.66
15,Cc1cc([N+](=O)[O-])ccc1NCc1ccco1,-11
16,O=C(Nc1nnc(S(=O)(=O)N2CCOCC2)s1)c1ccccc1Cl,-3.08
17,COc1cc2cc(CCCOC(=O)c3ccc4c(c3)OCO4)oc(=O)c2cc1OC,-4.11
18,COc1ccccc1NC(=O)Nc1ccc2c(c1)CCC2,-0.142
19,N/C(=N\OC(=O)c1cc(-c2ccccc2)nc2ccccc12)c1ccc(Cl)cc1,-3.98
20,CSc1cccc(NC(C)C(=O)NCc2ccccc2)c1 (stereo not drawn),2.74
21,O=C(COc1ccc([N+](=O)[O-])cc1Cl)Nn1cnnc1,8.56
22,CCCC(c1nnnn1C(C)(C)CC)N1CCN(C(=O)c2ccco2)CC1.Cl (stereo not drawn),-54
23,Cc1cc(C)n2nc(SCCOc3ccc(F)cc3)nc2n1,-68.8
24,CCN=c1scc(C)n1/N=C/c1cc(Br)c(O)c(OC)c1,3.65
25,CCC(=O)N1CCc2cc(S(=O)(=O)CCC(=O)Nc3ccc(C)cn3)ccc21,-2.45
26,CCN(C(=O)COC(=O)C1CCN(S(=O)(=O)c2ccc(C)c(C)c2)CC1)C1CCS(=O)(=O)C1 (stereo not drawn),-7.82
27,COc1ccccc1NS(=O)(=O)c1cc(NC(=O)c2ccc3ccccc3n2)ccc1Cl,2.78

row,SMILES,"hERG current change (%, negative = inhibition) at 10uM [%]"
1,O=c1cc(-c2ccccc2F)nc(-c2ccccc2F)o1,9.7
2,COc1ccc(-n2c(O)c(C(C)=NCCc3c[nH]c4ccccc34)c(=O)[nH]c2=O)cc1,14.6
3,S=c1nc(-c2cc(Cl)cc(Cl)c2)[nH][nH]1,31.9
4,O=C(Nc1cc(C(F)(F)F)ccc1Cl)C(Sc1nnc(-c2cccs2)o1)c1ccccc1 (stereo not drawn),20.2
5,CN(C)S(=O)(=O)c1ccc(Cl)c(C(=O)Nc2nc3ccccc3[nH]2)c1,9.62
6,O=C(O)CCC(=O)N1CCc2cc(S(=O)(=O)NC3CCCc4ccccc43)ccc21 (stereo not drawn),-5.02
7,O=C(COC(=O)CNC(=O)c1ccccc1)Nc1ccc(F)c([N+](=O)[O-])c1,-18.3
8,O=C(O)C(F)(F)F.O=C1C(Cc2ccccc2)Nc2ncnc(N3CCN(c4ccccc4)CC3)c2N1Cc1ccccc1 (stereo not drawn),-0.882
9,CCOC(=O)c1c(NC(=O)CSc2nc3cccnc3n2C)sc(C(C)=O)c1C,-10.2
10,CC(C)(C)C(=O)Nc1cc(S(=O)(=O)N2CCCCC2)ccc1N1CCCCC1,-3.26
11,CCCSCCCNC(=O)Cn1cc2c(n1)CCCCC2,7.82
12,CCc1ccc(Nc2nnc(SCC(=O)Nc3ccc(C(=O)O)cc3)s2)cc1,8.42
13,Cc1ccnc(NS(=O)(=O)c2ccc(NC(=O)C3CCCO3)cc2)n1 (stereo not drawn),2.9
14,CC(C)Cn1c(-c2cc(Br)ccc2F)nc2c1c(=O)[nH]c(=O)n2CC(C)C,-4.07
15,CC(=O)Nc1cccc(NC(=O)Nc2ccc(F)cc2F)c1,15.3
16,Cc1ccccc1NC(=O)COC(=O)/C=C/c1cccc(C(F)(F)F)c1,-4.07
17,O=C(O)CCC(=O)N(Cc1ccco1)C1CC(=O)N(c2ccccc2)C1=O (stereo not drawn),16.2
18,CCCCn1c(O)c(C(CC)=NC(C)c2ccccc2)c(=O)[nH]c1=O (stereo not drawn),-29.3
19,COc1ccc(/C(O)=C2\C(=O)C(=O)N(CCN(C)C)C2c2cccc(OC)c2OC)cc1 (stereo not drawn),5.18
20,COc1cc(/C=N/NC(=O)Cc2ccc(Br)cc2)cc(OC)c1O,25.8
21,c1ccc(CCC2CCCCN2Cc2cn[nH]c2-c2cc3ccccc3o2)nc1 (stereo not drawn),-74.9
22,CCOC(=O)c1cn[nH]c1NC(=S)Nc1ccc(OC)cc1,14.5
23,COc1ccccc1N1CCN(C(=O)C2CCN(S(=O)(=O)c3ccccc3F)CC2)CC1,-15.1
24,CC(CNC(=O)COc1ccccc1)OC(=O)Nc1ccc(Cl)c(Cl)c1 (stereo not drawn),-14.9
25,CC1CC(C)CN(C(=O)Cn2ncc3c([nH]c4ccccc43)c2=O)C1 (stereo not drawn),1.33
26,Cc1oc2c(cc(NS(=O)(=O)c3ccc4c5c(cccc35)C(=O)N4)c3ccccc32)c1C(=O)OC(C)C,5.33
27,CC1S/C(=N/N=C/c2cccs2)NC1=O (stereo not drawn),7.44
